Results published in patent publication US20190031783A1 (AbbVie / Abbott, published 2019).

Molecular target: T1, mouse DLL4 extracellular domain (mouse, UniProt Q9JI71 27-532)
T1 construct: extracellular domain; also called mouse DLL4530
Assay: SPR (Biacore), DVD captured via anti-human Fc, mouse DLL4 injected
Method: For DLL4 binding kinetic measurements the assay buffer was HBS-EPB: 10 mM Hepes, pH7.5, 150 mM NaCl, 3 mM EDTA, 0.005% Tween 20, 0.1 mg/ml BSA (Sigma A7906). For VEGF binding kinetic measurements the assay buffer was HBS-EP+(3N01B): 10 mM Hepes, pH7.5, 300 mM NaCl, 3 mM EDTA, 0.05% Tween 20, 0.1 mg/ml BSA (Sigma A7906). For example, approximately 9000 RU of goat anti-human Fc specific polyclonal antibody (Thermo Fisher Scientific Inc., Rockford, Ill.) diluted in 10 mM sodium acetate (pH 4.5) is directly immobilized across a CM5 research grade biosensor chip using a standard amine coupling kit according to manufacturer's instructions and procedures at 25 ug/ml. Unreacted moieties on the biosensor surface are blocked with ethanolamine. For kinetic analysis, rate equations derived from the 1:1 Langmuir binding model are fitted simultaneously to multiple antigen injections (using global fit analysis) with the use of Scrubber 2 (BioLogic Software), Biacore Biaevaluation 4.0.1 software or Biacore T100 Evaluation software. […] The equilibrium dissociation constant KD (M) of the reaction between antibodies and the target antigen is then calculated from the kinetic rate constants by the following formula: KD=Koff/Kₒₙ. Binding is recorded as a function of time and kinetic rate constants are calculated.

T1 sequence (Q9JI71 27-532): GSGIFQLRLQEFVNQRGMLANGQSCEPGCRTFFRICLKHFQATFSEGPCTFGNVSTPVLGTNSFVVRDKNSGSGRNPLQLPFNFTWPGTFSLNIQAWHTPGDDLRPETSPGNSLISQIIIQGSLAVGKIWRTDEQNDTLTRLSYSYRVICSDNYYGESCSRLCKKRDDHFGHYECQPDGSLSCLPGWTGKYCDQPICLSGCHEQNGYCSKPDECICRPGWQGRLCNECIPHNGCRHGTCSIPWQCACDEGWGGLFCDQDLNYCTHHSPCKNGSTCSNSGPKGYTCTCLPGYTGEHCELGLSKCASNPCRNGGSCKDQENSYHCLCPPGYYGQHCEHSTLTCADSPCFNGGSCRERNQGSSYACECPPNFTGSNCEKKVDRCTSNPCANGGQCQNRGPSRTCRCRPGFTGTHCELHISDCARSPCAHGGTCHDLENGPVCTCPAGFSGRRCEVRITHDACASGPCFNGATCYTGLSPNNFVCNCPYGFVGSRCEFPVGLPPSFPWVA

B1: h1A11.1-SL-Av (bispecific antibody, human IgG1, kappa)
heavy: EVQLVESGGGLVQPGGSLRLSCAASGFTFSNFPMAWVRQAPGKGLEWVATISSSDGTTYYRDSVKGRFTISRDNAKNSLYLQMNSLRAEDTAVYYCARGYYNSPFAYWGQGTLVTVSSASTKGPEVQLVESGGGLVQPGGSLRLSCAASGYTFTNYGMNWVRQAPGKGLEWVGWINTYTGEPTYAADFKRRFTFSLDTSKSTAYLQMNSLRAEDTAVYYCAKYPHYYGSSHWYFDVWGQGTLVTVSSASTKGPSVFPLAPSSKSTSGGTAALGCLVKDYFPEPVTVSWNSGALTSGVHTFPAVLQSSGLYSLSSVVTVPSSSLGTQTYICNVNHKPSNTKVDKKV[omitted - human IgG1 Fc with changes]
light: DIQMTQSPSSLSASVGDRVTITCRASEDIYSNLAWYQQKPGKAPKLLIYDTNNLADGVPSRFSGSGSGTDFTLTISSLQPEDFATYYCQQYNNYPPTFGQGTKLEIKRTVAAPSVFIFPPDIQMTQSPSSLSASVGDRVTITCSASQDISNYLNWYQQKPGKAPKVLIYFTSSLHSGVPSRFSGSGSGTDFTLTISSLQPEDFATYYCQQYSTVPWTFGQGTKVEIKRTVAAPSVFIFPPSDEQLKSGTASVVCLLNNFYPREAKVQWKVDNALQSGNSQESVTEQDSKDSTYSLSSTLTLSKADYEKHKVYACEVTHQGLSSPVTKSFNRGEC
notes: DVD-Ig; also called h1A11.1-SL-Av DVD; DVD Ig
Kd: 24 nM
